The list shows a part of the results. Sequences were assembled here from the parent chain. Values near 0.05 are background.
B1: TEV protease; numbered along this chain (parent)
chain: MGESLFKGPRDYNPISSSICHLTNESDGHTTSLYGIGFGPFIITNKHLFRRNNGTLVVQSLHGVFKVKDTTTLQQHLVDGRDMIIIRMPKDFPPFPQKLKFREPQREERICLVTTNFQTKSMSSMVSDTSCTFPSGDGIFWKHWIQTKDGQCGSPLVSTRDGFIVGIHSASNFTNTNNYFTSVPKNFMELLTNQEAQQWVSGWRLNADSVLWGGHKVFMVKPEEPFQPVKEATQL

Variants of: B1
Experiment: raw area under fraction-flipped curve 0-4 h after induction (AUC4h, not background-subtracted), DNA-recorder readout of cleavage of the substrate (dimensionless); higher = more cleavage of the substrate by the protease variant
Settings: temperature: 34 °C; time window: 0-4 h after rhamnose induction
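Note: Bxb1 expression induced with 0.2% (w/v) L-rhamnose at OD600 near 0.5, cultures sampled hourly, flipped fraction per protease–substrate barcode pair counted by paired-end Illumina sequencing.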

| Variant | area with substrate ENLYEQS | area with substrate ENLYHQS | area with substrate ENLYIQS | area with substrate ENLYMQS | area with substrate ENLYWQS | area with substrate ENLYYQS | area with substrate ENLYKQS | area with substrate ENLYPQS | area with substrate ENLYTQS | area with substrate ENLYDQS |
| --- | --- | --- | --- | --- | --- | --- | --- | --- | --- | --- |
| N172Y | 0.0632 | 0.0648 | 0.0428 | 0.0573 | 0.0656 | 0.0684 | – | – | – | – |
| N172K | – | 0.0818 | – | – | – | – | 0.0488 | 0.0546 | 0.0644 | – |
| N116M | 0.0581 | – | 0.127 | 0.11 | – | – | – | 0.074 | – | 0.0587 |
| S201Y | 0.0611 | 0.0654 | – | – | 0.0689 | 0.0623 | – | 0.0805 | – | – |
| T147C | – | 0.0746 | 0.0935 | – | 0.0807 | – | 0.094 | – | 0.0615 | – |
| F92R | – | – | – | – | 0.0552 | – | – | – | – | – |
| P134K | – | – | – | 0.0737 | 0.0809 | – | 0.0653 | 0.0691 | – | – |
| N178W | – | – | – | 0.106 | 0.113 | – | – | – | – | – |
| T71H | 0.0761 | – | 0.166 | – | 0.0738 | – | – | – | – | – |
| T71M | 0.0724 | 0.0704 | – | – | – | 0.054 | – | 0.0496 | – | 0.0698 |
| I110P | 0.0595 | 0.0615 | 0.0492 | 0.0445 | 0.058 | 0.0557 | 0.0565 | – | 0.0689 | – |
| P104Q | – | – | 0.0465 | – | – | – | 0.0378 | 0.0227 | – | – |
| G35N | 0.0274 | – | – | – | 0.0387 | 0.0319 | – | 0.0427 | – | – |
| G35Q | 0.0669 | 0.0496 | 0.0568 | 0.0598 | 0.0455 | – | – | – | – | – |
| G35C | 0.0568 | – | – | – | 0.0642 | – | – | – | 0.0486 | – |
| N193D | – | – | – | – | 0.0594 | 0.0682 | 0.064 | 0.0594 | – | – |
| I145H | 0.0613 | – | 0.162 | – | – | 0.0412 | 0.0677 | – | 0.0909 | 0.0604 |
| V67Q | – | 0.0682 | 0.106 | – | – | – | 0.0632 | 0.0755 | – | – |
| R87K | – | 0.0662 | 0.188 | – | 0.105 | – | – | – | – | – |
| R87W | – | 0.0662 | – | 0.0682 | 0.061 | 0.0732 | 0.0775 | – | 0.0556 | – |

| Variant | area with substrate ENLYEQS | area with substrate ENLYHQS | area with substrate ENLYIQS | area with substrate ENLYMQS | area with substrate ENLYWQS | area with substrate ENLYYQS | area with substrate ENLYKQS | area with substrate ENLYPQS | area with substrate ENLYTQS | area with substrate ENLYDQS |
| --- | --- | --- | --- | --- | --- | --- | --- | --- | --- | --- |
| F187T | 0.0591 | 0.0701 | – | 0.0774 | 0.0657 | – | 0.0722 | – | – | – |
| F187L | – | 0.0644 | – | 0.089 | 0.0829 | 0.0672 | 0.0419 | 0.0767 | 0.106 | – |
| K148S | 0.0645 | 0.0608 | 0.131 | – | – | 0.0825 | – | 0.0647 | – | – |
| K148D | 0.0542 | 0.0542 | 0.0669 | – | – | – | 0.0738 | 0.0678 | – | – |
| K148Y | 0.0559 | 0.0713 | 0.109 | 0.0602 | 0.0804 | 0.0604 | 0.0702 | 0.0643 | 0.0712 | – |
| T174V | 0.0605 | 0.0477 | 0.0874 | 0.0694 | 0.0911 | – | 0.0586 | 0.0197 | – | – |
| I84Q | – | 0.0552 | – | – | – | – | – | 0.043 | – | – |
| L73F | 0.065 | 0.0597 | – | 0.0638 | – | – | 0.0217 | 0.0594 | 0.054 | 0.0671 |
| K66T | 0.0665 | 0.0482 | – | – | 0.0847 | – | – | – | – | – |
| T132P | 0.0596 | 0.0505 | 0.0603 | 0.0665 | 0.0696 | 0.0496 | 0.055 | 0.0464 | – | – |
| C111F | 0.0706 | 0.0795 | 0.12 | 0.0811 | 0.0807 | 0.0685 | 0.0492 | 0.0697 | – | – |
| E189S | – | – | 0.125 | – | – | 0.0563 | 0.0736 | – | – | – |
| N186I | – | – | – | 0.0414 | 0.0536 | – | 0.0603 | – | 0.0737 | – |
| F180A | 0.112 | – | – | 0.069 | 0.0674 | – | – | – | – | – |
| F180R | 0.063 | – | – | – | 0.0524 | – | 0.022 | 0.106 | – | – |
| V217R | 0.0582 | – | 0.0494 | – | – | – | – | – | – | – |
| G8E | – | 0.0784 | – | – | – | – | 0.0603 | – | – | – |
| S127V | 0.0625 | 0.0843 | 0.144 | 0.0852 | 0.0959 | – | 0.0294 | 0.064 | – | – |
| K142V | 0.0716 | 0.0612 | 0.107 | – | 0.0735 | 0.0571 | – | 0.0672 | 0.0719 | 0.0651 |
| K221A | 0.0538 | – | – | – | – | – | – | 0.0719 | – | – |

Same assay, conditions: temperature: 34 °C; time window: 0-4 h after rhamnose induction

| Variant | area with substrate ENLYNQS | area with substrate ENLYVQS | area with substrate ENLYQQS | area with substrate ENLYRQS | area with substrate ENLYSQS | area with substrate ENLYGQS | area with substrate ENLYLQS |
| --- | --- | --- | --- | --- | --- | --- | --- |
| N116M | 0.0806 | 0.119 | – | – | – | – | – |
| S201Y | – | – | 0.0549 | 0.0624 | – | – | – |
| T147C | 0.0619 | – | – | – | 0.0413 | – | – |
| P134K | 0.0917 | – | 0.0597 | – | – | – | – |
| N178W | – | – | – | – | – | 0.0792 | – |
| T71H | – | – | – | – | 0.113 | 0.0526 | – |
| T71M | – | – | – | – | 0.0637 | 0.0881 | – |
| P104Q | 0.0414 | – | – | 0.0583 | 0.0522 | – | – |
| G35Q | 0.0474 | – | – | – | – | – | – |
| G35C | – | – | – | 0.0556 | – | – | – |
| N193D | 0.0671 | – | – | 0.0696 | – | – | – |
| I145H | – | – | 0.0645 | 0.0524 | 0.0783 | 0.0755 | 0.0679 |
| V67Q | – | – | – | – | – | 0.0553 | – |
| R87K | – | – | – | – | 0.0911 | 0.091 | – |
| R87W | – | – | 0.065 | 0.0575 | 0.0756 | 0.0627 | 0.108 |
| F187T | 0.0622 | – | – | 0.0566 | – | 0.0625 | 0.0714 |
| F187L | 0.0756 | 0.0885 | 0.0415 | 0.067 | 0.0902 | 0.0687 | – |

| Variant | area with substrate ENLYNQS | area with substrate ENLYVQS | area with substrate ENLYQQS | area with substrate ENLYRQS | area with substrate ENLYSQS | area with substrate ENLYGQS | area with substrate ENLYLQS |
| --- | --- | --- | --- | --- | --- | --- | --- |
| K148S | – | 0.0965 | – | 0.0652 | 0.0839 | 0.0651 | – |
| K148D | 0.04 | 0.0866 | 0.0638 | 0.0581 | – | 0.0661 | 0.0691 |
| K148Y | 0.0709 | 0.0529 | – | 0.0718 | – | 0.0648 | – |
| T174V | 0.0636 | 0.0632 | – | 0.0695 | 0.0932 | – | – |
| I84Q | 0.0577 | – | – | – | 0.0758 | – | 0.068 |
| L73F | 0.0667 | 0.0562 | – | 0.07 | – | – | – |
| K66T | 0.0666 | 0.123 | – | 0.0435 | – | 0.0672 | – |
| T132P | 0.0637 | – | 0.0708 | 0.0668 | – | 0.0579 | – |
| C111F | 0.063 | 0.125 | 0.0663 | – | 0.0736 | 0.0638 | – |
| E189S | 0.0649 | 0.0975 | 0.0446 | 0.0687 | – | – | – |
| F180A | 0.0529 | 0.0883 | – | – | – | – | 0.0681 |
| F180R | – | – | 0.0561 | 0.0536 | 0.045 | – | – |
| V217R | – | 0.0649 | – | – | – | 0.0464 | 0.0492 |
| G8E | 0.0741 | – | – | – | – | – | – |
| S127V | – | – | 0.059 | – | – | 0.0613 | 0.0865 |
| K142V | 0.0633 | – | 0.0748 | – | 0.076 | 0.0589 | – |
| K221A | 0.0592 | – | 0.0794 | 0.0556 | – | 0.0514 | – |

Reference: the supplement of paper PMC12217912
